Test results as given in the supplement of paper PMC3334620.
In all, about 33,000 sequences were measured (“E-score (-0.5 to 0.5)”: median about -0.017, highest 2% from about 0.3 on). Some of the results follow.

molecular target: T1, Sut1 (UniProt P53032); experiment: PBM E-score (8-mer binding enrichment) (E-score (-0.5 to 0.5)); higher = stronger / more preferred TF binding; most listed sequences are background and not binding sites; conditions: protein concentration: 200 nM; construct: GST-full length
T1 sequence: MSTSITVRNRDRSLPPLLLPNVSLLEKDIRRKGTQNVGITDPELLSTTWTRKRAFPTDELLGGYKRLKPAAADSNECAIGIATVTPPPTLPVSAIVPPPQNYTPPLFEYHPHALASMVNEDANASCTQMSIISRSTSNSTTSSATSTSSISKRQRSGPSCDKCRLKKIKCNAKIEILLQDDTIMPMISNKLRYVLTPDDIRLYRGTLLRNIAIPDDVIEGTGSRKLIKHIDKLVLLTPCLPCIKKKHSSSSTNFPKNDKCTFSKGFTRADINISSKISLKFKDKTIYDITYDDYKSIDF
How it was run: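 Masliner-normalised scans of fluorescent anti-GST signal were the basis for scoring. That signal came from GST-tagged yeast transcription factors applied at about 100-200 nM to double-stranded universal all-10-mer Agilent arrays on fresh or once-stripped slides. Each ungapped eight-base word, pooled with its reverse complement, received an E-score from the Universal PBM Analysis Suite.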

| Sequence | PBM E-score |
| --- | --- |
| AGATACGG | 0.216 |
| GTATTTTA | 0.168 |
| GTCTAGGA | -0.2 |
| ACCTGTGA | -0.00623 |
| AGGTGTGG | -0.0561 |
| AGATGGCG | 0.0779 |
| ATCATTCG | 0.0989 |
| TACCAGCA | -0.147 |
| CACCATAA | 0.0736 |
| GGGAGCAC | -0.089 |
| ATCGCGAG | -0.0459 |
| AGTAGCAG | -0.112 |
| GATTGTAC | -0.0282 |
| CCAATACA | 0.0323 |
| GAAGTTAC | 0.136 |
| ATAAGTCA | 0.181 |
| TCTGAGAA | -0.00752 |
| ACTTATAA | 0.246 |
| CAAGCCCG | 0.147 |
| AAACGTGT | -0.0932 |
| ATAAAGAG | 0.0458 |
| GACGGCCA | -0.0576 |
| GCGCCGTA | -0.0811 |
| CACTGATG | -0.158 |
| TCATGAGA | -0.0174 |

| Sequence | PBM E-score |
| --- | --- |
| CATGACGA | -0.0559 |
| CAAAGGAG | 0.0319 |
| ACGGTACA | 0.0433 |
| ATCCCGTC | 0.00947 |
| CAGTCCTC | -0.169 |
| AAGGGGGT | -0.314 |
| AATGGTCG | -0.193 |
| CCCTGCCC | -0.41 |
| GCTTTGTA | 0.0438 |
| ATTGCATG | 0.142 |
| CAAGCCGC | -0.2 |
| ACTTTGAG | -0.104 |
| AACGATCC | -0.0436 |
| AGTAAATG | 0.203 |
| ACATGTGC | -0.028 |
| CGGGTCGA | -0.13 |
| CCTACCGA | -0.184 |
| AAAGGGTG | -0.102 |
| GATGCTGC | -0.107 |
| ACGGATTG | 0.0185 |
| CTAGAGAC | -0.0895 |
| AACTACCG | 0.0903 |
| CTCGGAAG | 0.174 |
| GACCTCTC | 0.0599 |
| GATAAACC | -0.114 |

| Sequence | PBM E-score |
| --- | --- |
| GGGGTTGA | 0.0885 |
| AACATCGT | -0.104 |
| CGTTGGCA | -0.0897 |
| AATTACTC | 0.289 |
| CGCAATCC | -0.0614 |
| GTTAGGCA | -0.146 |
| ACTGTCAG | -0.137 |
| ACCGTGTG | -0.101 |
| GAGGTCTA | -0.16 |
| ACTCCTTC | -0.106 |
| ACCCCTCT | -0.21 |
| AGCTAGAG | -0.103 |
| CGGCTTTC | 0.0641 |
| CTGAAAAC | 0.142 |
| CGGTGTAC | -0.0056 |
| CATAAATA | 0.168 |
| GAGGTATC | -0.132 |
| TCGAACGA | -0.0715 |
| ATACTGAC | 0.13 |
| CCAAATAG | 0.0306 |
| CCGGCTAC | 0.0198 |
| AGACTGTC | -0.14 |
| ACGTGGAG | -0.159 |
| CCCACGAG | -0.242 |
| CTTGCCTC | -0.0816 |

| Sequence | PBM E-score |
| --- | --- |
| CCTCTTCG | -0.0989 |
| ATGCCCTA | -0.169 |
| AACGAGCC | -0.214 |
| AGGACTCC | 0.129 |
| AGCTTGCC | -0.22 |
| CGCCCCAC | -0.273 |
| AGTATATA | 0.395 |
| GCGATGGA | 0.0891 |
| CCACTAGA | -0.183 |
| ACCACCTA | -0.202 |
| ATCCCTAG | -0.19 |
| ACGCGGTC | -0.014 |
| CACTGAAC | 0.014 |
| CTGACGCC | -0.143 |
| CTGCCCCC | -0.396 |
| AAAGGTAG | -0.0863 |
| ACGCAACC | -0.0591 |
| AGCTCATG | -0.206 |
| CTCTAAAG | -0.0246 |
| ACTCATAA | 0.0777 |
| GCATTGCA | -0.0106 |
| AAGGGCAC | -0.218 |
| CGGAGTCC | 0.486 |
| CGCGGCTA | -0.125 |
| AACGGTGA | -0.141 |

| Sequence | PBM E-score |
| --- | --- |
| AATACAAT | 0.262 |
| ATCCGTTC | 0.147 |
| CACGACGA | -0.194 |
| CAAATTAA | 0.189 |
| ATGAGATC | 0.0501 |
| CAAAACGA | 0.174 |
| AAGTGGAG | 0.044 |
| AATCATGC | -0.0725 |
| CTCAAGCA | -0.121 |
| TAAACAGA | 0.183 |
| ATCACCTA | -0.13 |
| CATTCTGC | 0.0201 |
| GAGGATCC | -0.0628 |
| GTCTCGTA | -0.0582 |
| ACACATGC | -0.233 |
| AATAGTTA | 0.211 |
| ACGCCTAC | -0.215 |
| GAATGACC | 0.0311 |
| CCTTCCGC | 0.0599 |
| AATCGATA | 0.114 |
| AGGCACCA | -0.214 |
| ACCGTTAT | -0.0558 |
| ACTCATCA | 0.0474 |
| CCTCCAAG | -0.279 |
| ATTAACAA | 0.199 |

| Sequence | PBM E-score |
| --- | --- |
| GAACACCA | -0.15 |
| AGAGCCCG | -0.0964 |
| TCGATAGA | -0.0381 |
| TCATCAAA | -0.0315 |
| TCGTTAAA | 0.121 |
| CACATCTC | 0.0274 |
| ACCCATCC | -0.189 |
| CATTAGTA | 0.0916 |
| AAGTGGGG | -0.117 |
| GAGCAATA | -0.0374 |
| AGCACTTC | -0.16 |
| GACCAGGA | -0.0983 |
| TGGGTGAA | 0.237 |
| GCGGCTAA | 0.0216 |
| ACAGGAAT | -0.00619 |
| AGGATAAG | -0.0672 |
| CACCTGAG | -0.214 |
| CGAATATC | 0.0285 |
| TAGCATGA | 0.00304 |
| TATTCTAA | 0.0829 |
| TTCATCAA | 0.119 |
| CGATCGAC | 0.103 |
| ATTCAATA | 0.252 |
| CTACTATC | 0.312 |
| ACGGGCAA | -0.0769 |

| Sequence | PBM E-score |
| --- | --- |
| CAGACCCG | -0.0644 |
| ATCAGTAC | 0.0306 |
| GTCTAAAC | 0.17 |
| CAATTCAG | -0.0802 |
| TTCGTCAA | 0.0374 |
| CCCCATGC | -0.228 |
| AAGAACGT | 0.0715 |
| ATCAACAT | 0.179 |
| CTAGCGAG | -0.222 |
| AGGTAAGA | -0.00278 |
| ATTTTCAC | 0.152 |
| TGCCTCCA | -0.295 |
| CAGCGTGC | -0.155 |
| CCAGTCCC | -0.199 |
| AAGCCAAC | 0.118 |
| AATTATAG | 0.257 |
| GCGTATGA | -0.11 |
| AACCAATG | 0.0521 |
| ATTACGCG | 0.122 |
| ACGTCATG | 0.0136 |
| ACCAGCGA | -0.0133 |
| CGGGTAAC | -0.0778 |
